Test results reported in a collection of fitness landscapes (doi:10.1016/j.celrep.2020.107928).
The full ranking holds about 81,000 sequences; the median of “one-hybrid fitness for binding parS DNA” is about -0.17, and the highest 2% start at about 0.51. This is one part of the list.

B1: Caulobacter ParB omega fusion; a variant is named by its letters at X, in order, B8GW30 (parent)
chain: MESVVVGEPGMSEGRRGLGRGLSALLGEVDAAPAQAPGEQLGGSREAPIEILQRNPDQPRRTFREEDLEDLSNSIREKGVLQPILVRPSPDTAGEYQIVAGERAWRAAQRAGLKTVPIMVRELDDLAVLEIGIIENVQRADLNVLEEALSYKVLMEKFERTQENIAQTIGKSXSHVANXMRLLXLPDEVQSYLVSGELTAXHARAIAAAADPVALAKQIIEGGLSVRETEALARKAPNLSAGKSKGGRPPRVKDTDTQALESDLSSVLGLDVSIDHRGSTGTLTITYATLEQLDDLCNRLTRGI

Variants of: B1
Assay: one-hybrid fitness for binding parS DNA (scaled: cognate 1, non-cognate 0); higher = stronger binding
Conditions: with parS DNA site
How it was run: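 Pre- and post-selection plasmids were Illumina-sequenced, three replicate libraries were pooled, and any variant with under 10 reads was removed. The libraries were Caulobacter ParB with four specificity codons randomised, selected in E. coli USO through a HIS3 reporter whose site is 19 bp from the promoter. Cells grew 48 hours at 37°C on M9 without histidine, with 0.1 mM IPTG and 5 mM 3-AT. Fitness is the log change in variant-to-wild-type read ratio, rescaled against cognate and non-cognate.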

one-hybrid fitness for binding parS DNA, 0.276:
KRVR

one-hybrid fitness for binding parS DNA, 0.249:
FLKN

one-hybrid fitness for binding parS DNA, ≤ 0.2:
QYYA
ATSY
PQAE
RFPA
FRLK
AQCR
WCER
TDYL
VIDN
YNSV
AYTR
GMER
YNRM
QTPL
HMQS
RQEV
WLPT
VAGM
ACVT
HVGP
KQCR
REAV
VRHL
YQVR
DHVA
SCTK
IVIR
EPFR
WVKT
PLDG
VNNN
SGVI
AAHL
QLCL
FQTG
TDNR
PWRY
MTAT
NVGC
AHSI
FLMR
RMNE
QRTG
LSDG
WMNV
GEYT
ARIL
PWVY
LVWD
WLNC
QMGA
VIAN
RKDW
QTGD
PVRT
MVSA
HRNE
FPRG
LVLM
SAKF
WGVS
EITG
SCSI
LAGG
MPRP
PVIG
SERW
LTND
DRQV
DPSH
IEAR
DVYG
GVQV
QTMD
PRVQ
TRPN
KAAY
PWAS
MMLF
ESRC
SICY
TYYY
RTVE
EPGF
QPDK
PEVT
HAPC
SMNV
TNQS
SQTM
KACG
QSVM
MATH
ATCW
RGYI
FMKF
RSYQ
ICSL
ALKN
MDSC
LTAR
SIEL
WIAS
VLQP
MDPA
ECNC
IRVG
FEMN
PYQR
QCTK
SAAP
RVCQ
EHMT
TKYC
QKRE
EPAL
FKKG
VEIT
RHCP
HAMG
IRDG
QRWI
VTRG
TSSW
AVEC
HWPT
YFAA
LMKK
MNYW
NRQP
IENR
QYKM
FACY
ARKY
QFFY
VHQV
CDRT
HRPF
PHDG
ENHK
RDFG
MFTW
VVSL
LMMR
RYHR
HMAC
SDSQ
KPSG
AVGR
YEGT
ISRR
LYMG
SYRG
MGPG
MRAA
PVFG
SLML
NYKV
DLVW
NQME
PTSD
RNSE
CQNG
DCHG
QMME
SKLT
DVKS
IMLT
VMRY
GIYN
HRNR
DYRG
PMGQ
DELC
CIFS
PPMW
RLPF
AWSS
YPCL
CCIT
WLKG
STLG
HKKN
RVWV
LWNG
YNNS
CTPD
GVAL
GCTL
EGQG
RTYD
QPFF
QLKI
LERK
RSKV
NDVH
PTPI
SDFS
VPIN
HGGR
QEAS
MHMG
FLKM
QMQF
LAYC
LASP
LTIV
PRMV
MRTE
PAPG
GESR
GHPR
TFDE
KNCL
SRWS
PANQ
HMHS
QTYI
TVQS
VTEI
DTIS
PYFS
SNIV
TVFS
YSCS
GCEC
GWNT
WAMW
WGQR
TFMR
PKQP
QWWW
LECR
FSCG
PQAT
QRMP
KRGT
GRFT
YVSY
VRTC
SSNG
TVQF
PKRM
CSSR
IHTV
SPCA
CTRY
QGQI
QLVQ
CLSY
NAAH
SRHG
PYRE
ISSF
APCY
LPMV
QYRS
FNPT
ERIS
CSWS
KEMV
GNNG
MHIS
GGTT
GAYK
PFGS
SSHR
NELP
WNQR
KEDS
QNHR
RVIH
YSEE
CGPR
VTTI
SVPC
MWQL
EKLF
IFLS
QDLG
PAMM
SFSE
RVYL
PDAG

one-hybrid fitness for binding parS DNA, 0.892:
RSFC

one-hybrid fitness for binding parS DNA, 0.29:
RVVM

one-hybrid fitness for binding parS DNA, 0.565:
RVVA

one-hybrid fitness for binding parS DNA, 0.984:
RFNS

one-hybrid fitness for binding parS DNA, 0.869:
RHHT

one-hybrid fitness for binding parS DNA, 0.395:
RLFN

one-hybrid fitness for binding parS DNA, 0.302:
RENG

one-hybrid fitness for binding parS DNA, 0.958:
RVLC

one-hybrid fitness for binding parS DNA, 0.223:
RSMF

one-hybrid fitness for binding parS DNA, 0.583:
RQYA

one-hybrid fitness for binding parS DNA, 0.341:
HRTC

one-hybrid fitness for binding parS DNA, 0.909:
RAAT

one-hybrid fitness for binding parS DNA, 0.256:
RNFN

one-hybrid fitness for binding parS DNA, 0.226:
RMIW

one-hybrid fitness for binding parS DNA, 1:
RTSG

one-hybrid fitness for binding parS DNA, 0.261:
RLVF

one-hybrid fitness for binding parS DNA, 0.932:
RSAC

one-hybrid fitness for binding parS DNA, 0.813:
RVEG

one-hybrid fitness for binding parS DNA, 0.999:
RIQG

one-hybrid fitness for binding parS DNA, 0.995:
RAMG
